Data taken from patent US3943256A (priority 1974, dated 1976).

Details: distillation at 760 torr

In the case of `FCOCC(F)(F)C(F)(F)F` [V, Fluoromehtyl 2,2,3,3,3-pentafluoropropyl ether], the “stability to heat on distillation” value is reported as “unstable to heat and decomposed with the formation of hydrogen fluoride”.
